Measured values from the supplement of paper PMC10126150.
Values marked as one replicate rest on one cluster of the flow cell; about a third of the high ones do not repeat.

Tested on: ATP
Experiment: switch fluorescence ratio, 500 uM ATP over buffer (Cy3 cluster intensity, sum of 5 cycles each) (fold (ratio)); higher = stronger signal-on switching upon ATP binding; sequences stand for … in TCGTCGGCAGCGTCAGATGTGTATAAGAGACAGTTTTTTTTTTTTTTTTTTTTTTTTT…TC
Conditions: aptamer strand: ATP DNA aptamer (quencher-CACCTGGGGGAGTATTGCGGAGGAAGG + anchor), 100 nM annealed; ATP concentration: 500 uM; one replicate
Procedure, shortened: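 Exposure to 500 uM ATP lasted 15 min at 22 °C before imaging, and a selection-buffer image was taken beforehand, for Cy3-labelled switching-strand clusters on a modified Illumina MiSeq flow-cell annealed to 100 nM quencher-labelled ATP aptamer. Five buffer/ATP cycles were run with NaOH stripping and re-annealing between them. The fluorescence ratio per cluster is summed target-cycle over summed buffer-cycle Cy3 intensity, averaged per switch-domain sequence. Clusters outside 100-1000 RFU were excluded.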

Sequence | switch fluorescence ratio
CCATGAGGC | 0.988
CAGTCATATC | 1.05
ACGTGAGTAC | 1.03
ACAGGGCTGT | 1
GAGGGTTCGC | 1
TTTTTATGA | 0.975
AAACTACTCC | 1.54
AGGTCATTTG | 1.02
CTGTGAATCA | 0.972
ATTTGATAGG | 0.998
AAATTTGGCA | 0.99
TGACGGCGGC | 1.07
AGTATAGTCG | 1.06
CATCTATCGA | 0.98
CATCGAGCAT | 1.7
TCCAGTAAAC | 1.24
CTGCCCCTTA | 1
AGGCCGGTAG | 0.961
ATGTGTGTGC | 0.987
CGGGATATAC | 2.26
ATACATTTGC | 0.989
GACCGGTGCT | 1.01
GGTTTCCTTG | 0.976

Sequence | switch fluorescence ratio
AGGCTGGTTT | 1
TTACTTTGAT | 0.998
GGCATATTCG | 0.937
CTTGCTATC | 1.24
AAAAAGTAA | 1
TGATAGCGG | 1.03
ATGCGAGGTA | 0.991
GGTCTCGCTC | 0.972
CTCAAATCCC | 1.05
GCGGGGGCGA | 0.955
AGAGACCGA | 0.994
GCGTGATTAA | 1.04
TTGGTTAACG | 0.962
TCGCAAGCCA | 1.42
GGAGGTGCTT | 1.01
CTGTTTGGT | 0.989
TCAGTAAGT | 0.964
GGCTTAAAGA | 1.03
TGCCAACAGT | 1.02
ATGCGTAACC | 0.995
TAGGAACCTT | 1.79
TCCGCCTGCT | 1.44
AGGTTACGGT | 0.981

Sequence | switch fluorescence ratio
GGAGGATGTC | 1.07
TAACTTATCG | 1.02
ATCAACAAT | 1.03
TGGGCCCCTC | 1.01
ACCGGACCA | 1.17
ATGTCGGTAC | 1.06
GCACTAGAGT | 1.04
ATAAGCATAC | 4.04
CACCGTAGCC | 1.52
CGCAGAGGAA | 1.03
CAGCACCCTG | 1.04
ATTTTGTGA | 1.01
GCGCTAGACC | 1.26
TCAGGCCGGA | 0.968
TACGGCTGCG | 1.03
GCTGTTCGA | 0.964
AGGCTCCATG | 1.02
AGAGTGCTTA | 1.01
GAAGGATTTA | 0.984
CGTTACGTCA | 1.05
CAATCTACGA | 1.05
GAAGAAAATG | 0.964
TTATGCTTCC | 1.88

Sequence | switch fluorescence ratio
AGCGATAGAA | 0.929
TTGCTCCGAG | 1.26
GCCCCCTGGT | 1.07
TTTATACAAG | 0.973
TTAGGGAGC | 1.02
CTTAGTAAAC | 1.1
TGCCACATAA | 1.07
TATTAGCGGT | 1.03
TGACTATTTA | 1
GTACTAATCC | 0.983
TACTTTGTGT | 1.02
TGCTGCTGAT | 1.01
TTAATTAGCC | 0.993
ACGTCACGCG | 1.19
AAGGGTTTCC | 1.02
CATATGGACA | 1.03
AATGGTCGG | 1
TATTGTCAG | 1.05
ACTTAAGACC | 1.06
ATCACGTTTA | 1.01
TACACGCTAG | 1.05
CATCGGAGTA | 1.01
CTGGTTTAAC | 1

Sequence | switch fluorescence ratio
TTGCAAACGG | 0.985
GTAGTCTAAC | 1.05
CTGAATAGGA | 0.983
TACGGAGCAT | 6.05
ACTTCGTTGC | 1.3
AAGCGCGGCT | 1.03
TCTAGATACG | 1.09
GCGAATAGGG | 1.02
TCGTTGTC | 0.915
ATGAAGGTTT | 0.992
ATTGGCGCCC | 1.06
TGTAGGGGCG | 1.03
CTACTAGGGT | 1
TAAGGTATTG | 0.997
ACGCAGTTGA | 1.03
ATTACTAGAC | 1.12
AATGAGATGG | 0.964
GAGTATGGAC | 0.906
ACGTCTCCTT | 1.05
AGTGTATAGT | 0.981
AGGCAGGCTT | 0.953
TAGATAAAAG | 1.01
AAGGTGGTCA | 1.01

Sequence | switch fluorescence ratio
TTGCCGGCC | 1.03
GGCGGTGTTA | 0.955
CGACGCCCGT | 1.29
GACTCGGCGT | 1.06
TCGCTGGGGT | 1.39
ATGAAGGAGA | 1.01
TCGGTAAAGC | 0.963
CCGATATCGC | 1.17
GGACTCGTGG | 0.991
GCCCGAAGGC | 1.04
GGTATTAGG | 0.977
GAGACATTTG | 0.918
GAGGGTGGCT | 0.979
TGGCACCATC | 1
CAACTGTCGA | 1.07
AAGCAGATGG | 1.03
CATTTTTACT | 1.04
TGATGCAGGA | 1.07
CGTAATGGAG | 1.04
CGCGCTCCAT | 1.37
GAGGGCTGCG | 1.02
TAACTCCACT | 1.23
GTTGATCGGA | 1.02

Sequence | switch fluorescence ratio
GGGTGAGACA | 0.917
TGGCCCTGGT | 1.02
ACTAGGTAT | 1.03
ATCTGTTATA | 1.02
GGGTACAAAT | 1.01
CGGTGGATTG | 1.02
TAGAGGTGGC | 0.963
ATCCTGTTCA | 0.997
TTATGGGCA | 0.967
TTATTACGAC | 1.16
AGAATCACGA | 1.03
ATAACCTGTG | 1.03
TGCTGCGCGT | 1.1
GCTTTGAGCG | 0.982
GCTTTTTCCC | 0.999
GCATTACTAT | 1.19
ATTACGCGTG | 0.996
TATGTTCTGT | 0.957
TTGCAGGATC | 1.02
